# Laboratory results from ChEMBL document CHEMBL1201862, “PubChem BioAssay data set” (2004).
# “And” between values parts separate entries of the source, which are not always exact repeats. Identical values can stand only once.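 These data come from cells grown in 96-well plates and exposed to compound for 48 hours at five concentrations. GI50: concentration for 50% inhibition of growth.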 The source made the active and inactive calls. No stated cut-off is given here; in the data, active = GI50 up to about 1.1 µM and inactive = higher.
# Tested on: NCI-H322M
# Test: NCI-60 cell line screen, 48 h
row,SMILES,GI50
1,c1ccc(CCCN2C3CCC2CN(CCOC(c2ccccc2)c2ccccc2)C3)cc1,inactive: 12.7 µM
2,O=C1CN2CCN(CC2)CC(=O)Nc2ccc(cc2)S(=O)(=O)c2ccc(cc2)NC(=O)CN2CCN(CC2)CC(=O)Nc2ccc(cc2)S(=O)(=O)c2ccc(cc2)N1,inactive: > 100 µM
3,COc1ccc(C(=O)NCCC2=CCCCC2)cc1,inactive: > 100 µM
4,O=C(O)/C=C\C(=O)Nc1ccc2c(c1)-c1ccccc1C2,inactive: 45.6 µM
5,NS(=O)(=O)c1cc(C(=O)O)c(O)c2ccccc12,inactive: > 100 µM
6,N#Cc1cc(-c2nc3ccc(F)cc3s2)ccc1N,inactive: > 100 µM
7,CN1c2ccc(Cl)cc2C(=O)NC1c1ccc([N+](=O)[O-])s1 (stereo unspecified),inactive: 24.5 µM
8,Cc1ccc(NC(=S)N/N=C2\C(=O)Nc3ccccc32)cc1,inactive: > 100 µM
9,CC(=C\c1ccccc1)/C=C(\C#N)C(N)=O,inactive: > 10 µM
10,O=P(O)(O)CC1OC(CO)C(O)C1O (stereo unspecified),inactive: > 100 µM
11,CC(=O)OC1OC(C2c3cccc(O)c3C(=O)c3c(O)cc(CO)cc32)C(O)C(O)C1O (stereo unspecified),inactive: 5.62 µM and inactive: 4.91 µM
12,C/C(CC(=O)Nc1ccc(C)c(C)c1)=N\N(c1ccccc1)c1ccccc1,inactive: > 100 µM
13,COc1ccc2c(c1)CCCN1CCc3ccccc3C21 (stereo unspecified),inactive: 83.6 µM
14,OC(COc1ccc(Cl)cc1Cl)CN1CCCC1 (stereo unspecified),inactive: > 100 µM
15,O=C(OC1=CCN(Br)C1=O)C1=C(O)C(=O)N(Br)C1,inactive: 42.9 µM
16,Oc1cc2cc(-c3ccccc3)[nH]c2c2ccccc12,inactive: 70.6 µM
17,Cn1c2ccccc2c(=NNc2ccc(S(N)(=O)=O)cc2)c2ccccc21,inactive: 24.7 µM
18,C[C@]12CC[C@H](O)CC1=CC[C@@H]1C2CC[C@]2(C)c3nn(-c4ccc(F)cc4)nc3CC12 (stereo partly specified),inactive: 47 µM
19,Cc1cccc2nc3c(C(=O)NCCN(C)C)cccc3cc12,inactive: 1.43 µM
20,N#C/C(C(=O)NCc1ccccc1)=C(/N)N1CCCC1,inactive: > 100 µM
21,Cc1ccc(C)c(NC(=O)CCc2nnc(S)[nH]2)c1,inactive: > 100 µM
22,COc1cc2c3cc1Oc1c(OC)c(OC)cc4c1C(=NCC4)Cc1ccc(cc1)Oc1cc(ccc1O)C[C@H]3N(C)CC2,inactive: 18.4 µM
23,CCOc1cc2c[n+](C)c3c4cc(OC)c(OC)cc4ccc3c2cc1OC,inactive: > 100 µM

row,SMILES,GI50
1,CC(C)=CCC[C@@H](C)C1=C(Nc2ccccc2F)C(=O)C(C)=C(O)C1=O,inactive: 4.72 µM
2,CCOC(=O)NNC(=O)NCc1ccccc1CNC(=O)NNC(=O)OCC,inactive: > 100 µM
3,O=C(CC(C(=O)c1ccco1)c1ccco1)c1ccco1 (stereo unspecified),inactive: > 100 µM
4,COc1cc2c[n+](C)c3c4cc(OC)c(OC)cc4ccc3c2cc1OC,inactive: > 100 µM
5,COc1ccc(/C=C2\CC3C4CC=C5C[C@@H](O)CC[C@]5(C)C4CC[C@]3(C)C2=O)cc1OC (stereo partly specified),inactive: > 100 µM
6,Cc1cccc(N2C(=O)C(Cl)=C(Cl)C2=O)c1,inactive: > 100 µM
7,CC(=O)CC(=O)Nc1ccc(OS(N)(=O)=O)cc1,inactive: > 100 µM
8,O=C(Cn1c(-c2ccccc2)cc2ccccc21)N1CCOCC1,inactive: > 100 µM
9,O=C(CC(C(=O)c1cccs1)c1ccsc1)c1cccs1 (stereo unspecified),inactive: 71.1 µM
10,Nc1nc(N)c2ncn(CC3CCC(CO)C3)c2n1 (stereo unspecified),inactive: > 100 µM
11,C=C1c2nc3ccccc3n2C=C(c2ccccc2)N1c1ccc(Cl)cc1,inactive: 53.7 µM
12,Cc1cccc(C)c1NC(=O)C(=O)CC(=O)c1cccc([N+](=O)[O-])c1,inactive: > 100 µM
13,Cc1nc2c(sc3nc4ccccc4n32)c(=O)[nH]1,inactive: > 100 µM
14,Nc1ccccc1C(=O)CCC1C(=O)NC(=S)NC1=O,inactive: > 100 µM
15,O=C(NNC(=O)c1nsc2ccccc12)c1ccc(Cl)cc1,inactive: 19.4 µM
16,Cc1ccc(C2=NN(C)COC2C(F)(F)F)cc1 (stereo unspecified),inactive: > 100 µM
17,COc1ccccc1/N=N/C(C(=O)c1ccccc1)C(=O)c1ccccc1,inactive: 13.6 µM
18,O=C1CC(c2ccc(Cl)cc2)C2(C(=O)NC(=O)NC2=O)C(c2ccc(Cl)cc2)C1 (stereo unspecified),inactive: 18.1 µM
19,O=C(Nc1c(O)[nH]c(=S)[nH]c1=O)c1ccccn1,inactive: > 100 µM
20,O=C1CCC(=O)c2c1c(O)c1ccncc1c2O,inactive: 27.8 µM
21,CCOC(=O)c1nc2cc(C(F)(F)F)ccc2nc1Nc1ccc(F)cc1,inactive: 54.8 µM
22,CCN1C(=O)N2C(OC)c3ccccc3C(Br)C2(OC)C1=O (stereo unspecified),inactive: > 100 µM
23,COc1ccc(-c2nc(SCC(=O)N/N=C/c3ccc(O)c(OC)c3)[nH]c2-c2ccc(OC)cc2)cc1,inactive: 40 µM
